From the supplement of paper PMC8728848
Some of the results follow.

Legend:
Test in all cases: glycan array binding signal (z-score within array); higher = stronger binding
Details in all cases: glycan notation: IUPAC condensed, linker removed; mutation: R74S
Fuc(a1-2)Gal = target: Fuc(a1-2)Gal
Method in brief: (§1)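 Negative Z-scores can be read as non-binding. The Z-score is calculated within each array and then averaged across arrays of one protein sequence at different concentrations or buffers and across linkers. Arrays, 3228 in all, were curated from the Consortium for Functional Glycomics database and kept only where the protein sequence was available.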

Fuc(a1-2)Gal(b1-3)GalNAc = target: Fuc(a1-2)Gal(b1-3)GalNAc
Method in brief: as §1

[1] = target: Fuc(a1-2)Gal(b1-3)GalNAc(a1-3)[Fuc(a1-2)]Gal(b1-4)Glc
Method in brief: as §1

[2] = target: Fuc(a1-2)Gal(b1-3)GalNAc(a1-3)[Fuc(a1-2)]Gal(b1-4)GlcNAc
Method in brief: as §1

[3] = target: Fuc(a1-2)Gal(b1-3)GalNAc(b1-3)Gal
Method in brief: as §1

[4] = target: Fuc(a1-2)Gal(b1-3)GalNAc(b1-3)Gal(a1-4)Gal(b1-4)Glc
Method in brief: as §1

[5] = target: Fuc(a1-2)Gal(b1-3)GalNAc(b1-4)[Neu5Ac(a2-3)]Gal(b1-4)Glc
Method in brief: as §1

Fuc(a1-2)Gal(b1-3)GlcNAc = target: Fuc(a1-2)Gal(b1-3)GlcNAc
Method in brief: as §1

[6] = target: Fuc(a1-2)Gal(b1-3)GlcNAc(b1-2)Man(a1-3)[Fuc(a1-2)Gal(b1-3)GlcNAc(b1-2)Man(a1-6)]Man(b1-4)GlcNAc(b1-4)GlcNAc
Method in brief: as §1

[7] = target: Fuc(a1-2)Gal(b1-3)GlcNAc(b1-2)Man(a1-3)[Fuc(a1-2)Gal(b1-3)GlcNAc(b1-2)Man(a1-6)]Man(b1-4)GlcNAc(b1-4)[Fuc(a1-6)]GlcNAc
Method in brief: as §1

[8] = target: Fuc(a1-2)Gal(b1-3)GlcNAc(b1-3)Gal(b1-4)Glc
Method in brief: as §1

[9] = target: Fuc(a1-2)Gal(b1-3)GlcNAc(b1-3)GalNAc
Method in brief: as §1

[10] = target: Fuc(a1-2)Gal(b1-3)GlcNAc(b1-3)[Fuc(a1-2)Gal(b1-3)GlcNAc(b1-6)]GalNAc
Method in brief: as §1

[11] = target: Fuc(a1-2)Gal(b1-3)GlcNAc(b1-3)[Gal(b1-4)GlcNAc(b1-6)]Gal(b1-4)Glc
Method in brief: as §1

[12] = target: Fuc(a1-2)Gal(b1-3)GlcNAc(b1-3)[Neu5Ac(a2-6)Gal(b1-4)GlcNAc(b1-6)]Gal(b1-4)Glc
Method in brief: as §1

[13] = target: Fuc(a1-2)Gal(b1-3)GlcNAc6S
Method in brief: as §1

[14] = target: Fuc(a1-2)Gal(b1-3)[Fuc(a1-4)]GlcNAc
Method in brief: as §1

[15] = target: Fuc(a1-2)Gal(b1-3)[Fuc(a1-4)]GlcNAc(b1-2)Man(a1-3)[Fuc(a1-2)Gal(b1-3)[Fuc(a1-4)]GlcNAc(b1-2)Man(a1-3)]Man(b1-4)GlcNAc(b1-4)GlcNAc
Method in brief: as §1

[16] = target: Fuc(a1-2)Gal(b1-3)[Fuc(a1-4)]GlcNAc(b1-2)Man(a1-3)[Fuc(a1-2)Gal(b1-3)[Fuc(a1-4)]GlcNAc(b1-2)Man(a1-6)]Man(b1-4)GlcNAc(b1-4)[Fuc(a1-6)]GlcNAc(b1-4)[Fuc(a1-6)]GlcNAc
Method in brief: as §1

[17] = target: Fuc(a1-2)Gal(b1-3)[Fuc(a1-4)]GlcNAc(b1-3)[Fuc(a1-3)[Gal(b1-4)]GlcNAc(b1-6)]Gal(b1-4)Glc
Method in brief: as §1

[18] = target: Fuc(a1-2)Gal(b1-3)[Fuc(a1-4)]GlcNAc(b1-3)[Gal(b1-4)GlcNAc(b1-6)]Gal(b1-4)Glc
Method in brief: as §1

[19] = target: Fuc(a1-2)Gal(b1-4)Fuc(a1-3)]GlcNAc(b1-2)Man(a1-3)[Fuc(a1-2)Gal(b1-4)[Fuc(a1-3)]GlcNAc(b1-2)Man(a1-6)]Man(b1-4)GlcNAc(b1-4)GlcNAc
Method in brief: as §1

Fuc(a1-2)Gal(b1-4)Glc = target: Fuc(a1-2)Gal(b1-4)Glc
Method in brief: as §1

Fuc(a1-2)Gal(b1-4)Glc6S = target: Fuc(a1-2)Gal(b1-4)Glc6S
Method in brief: as §1

Fuc(a1-2)Gal(b1-4)GlcNAc = target: Fuc(a1-2)Gal(b1-4)GlcNAc
Method in brief: as §1

[20] = target: Fuc(a1-2)Gal(b1-4)GlcNAc(b1-2)Man
Method in brief: as §1

[21] = target: Fuc(a1-2)Gal(b1-4)GlcNAc(b1-2)Man(a1-3)[Fuc(a1-2)Gal(b1-4)GlcNAc(b1-2)Man(a1-6)]Man(b1-4)GlcNAc(b1-4)GlcNAc
Method in brief: as §1

[22] = target: Fuc(a1-2)Gal(b1-4)GlcNAc(b1-2)Man(a1-3)[Fuc(a1-2)Gal(b1-4)GlcNAc(b1-2)Man(a1-6)]Man(b1-4)GlcNAc(b1-4)[Fuc(a1-6)]GlcNAc
Method in brief: as §1

[23] = target: Fuc(a1-2)Gal(b1-4)GlcNAc(b1-2)[Fuc(a1-2)Gal(b1-4)GlcNAc(b1-4)]Man(a1-3)[Fuc(a1-2)Gal(b1-4)GlcNAc(b1-2)Man(a1-6)]Man(b1-4)GlcNAc(b1-4)GlcNAc
Method in brief: as §1

[24] = target: Fuc(a1-2)Gal(b1-4)GlcNAc(b1-3)Gal(b1-4)GlcNAc
Method in brief: as §1

[25] = target: Fuc(a1-2)Gal(b1-4)GlcNAc(b1-3)Gal(b1-4)GlcNAc(b1-2)Man(a1-3)[Fuc(a1-2)Gal(b1-4)GlcNAc(b1-3)Gal(b1-4)GlcNAc(b1-2)Man(a1-6)]Man(b1-4)GlcNAc(b1-4)GlcNAc
Method in brief: as §1

[26] = target: Fuc(a1-2)Gal(b1-4)GlcNAc(b1-3)Gal(b1-4)GlcNAc(b1-3)Gal(b1-4)GlcNAc
Method in brief: as §1

[27] = target: Fuc(a1-2)Gal(b1-4)GlcNAc(b1-3)GalNAc
Method in brief: as §1

[28] = target: Fuc(a1-2)Gal(b1-4)GlcNAc(b1-3)[Fuc(a1-2)Gal(b1-4)GlcNAc(b1-6)]GalNAc
Method in brief: as §1

[29] = target: Fuc(a1-2)Gal(b1-4)GlcNAc(b1-3)[Fuc(a1-3)[Gal(b1-4)]GlcNAc(b1-6)]Gal(b1-4)Glc
Method in brief: as §1

[30] = target: Fuc(a1-2)Gal(b1-4)GlcNAc(b1-6)GalNAc
Method in brief: as §1

[31] = target: Fuc(a1-2)Gal(b1-4)GlcNAc6S
Method in brief: as §1

[32] = target: Fuc(a1-2)Gal(b1-4)[Fuc(a1-3)]GlcNAc
Method in brief: as §1

[33] = target: Fuc(a1-2)Gal(b1-4)[Fuc(a1-3)]GlcNAc(b1-2)Man(a1-3)[Fuc(a1-2)Gal(b1-4)[Fuc(a1-3)]GlcNAc(b1-2)Man(a1-6)]Man(b1-4)GlcNAc(b1-4)[Fuc(a1-6)]GlcNAc
Method in brief: as §1

[34] = target: Fuc(a1-2)Gal(b1-4)[Fuc(a1-3)]GlcNAc(b1-2)[Fuc(a1-2)Gal(b1-4)[Fuc(a1-3)]GlcNAc(b1-4)]Man(a1-3)[Fuc(a1-2)Gal(b1-4)[Fuc(a1-3)]GlcNAc(b1-2)Man(a1-6)]Man(b1-4)GlcNAc(b1-4)GlcNAc
Method in brief: as §1

[35] = target: Fuc(a1-2)Gal(b1-4)[Fuc(a1-3)]GlcNAc(b1-3)Gal(b1-4)[Fuc(a1-3)]GlcNAc
Method in brief: as §1

[36] = target: Fuc(a1-2)Gal(b1-4)[Fuc(a1-3)]GlcNAc(b1-3)Gal(b1-4)[Fuc(a1-3)]GlcNAc(b1-3)Gal(b1-4)[Fuc(a1-3)]GlcNAc
Method in brief: as §1

[37] = target: Fuc(a1-2)Gal(b1-4)[Fuc(a1-3)]GlcNAc(b1-3)GalNAc
Method in brief: as §1

[38] = target: Fuc(a1-2)Gal(b1-4)[Fuc(a1-3)]GlcNAc(b1-3)[Neu5Ac(a2-6)Gal(b1-4)GlcNAc(b1-6)]Gal(b1-4)Glc
Method in brief: as §1

[39] = target: Fuc(a1-2)Gal3S(b1-4)GlcNAc
Method in brief: as §1

B1: Gal 7 (Homo sapiens) (protein)
chain: MSNVPHKSSLPEGIRPGTVLRIRGLVPPNASRFHVNLLCGEEGGSDAALHFNPRLDTSEVVFNSKEGGSWGREESGPGVPFGRGQPFEVLIIASDDGFKAVVGDAQYHHFRHRLPLARVRLVEVGGDVQLDSVRIF
Fuc(a1-2)Gal
  glycan array binding signal (z-score): 0.285
Fuc(a1-2)Gal(b1-3)GalNAc
  glycan array binding signal (z-score): -0.08
[1]
  glycan array binding signal (z-score): -0.294
[2]
  glycan array binding signal (z-score): -0.115
[3]
  glycan array binding signal (z-score): -0.319
[4]
  glycan array binding signal (z-score): -0.503
[5]
  glycan array binding signal (z-score): -0.204
Fuc(a1-2)Gal(b1-3)GlcNAc
  glycan array binding signal (z-score): -0.384
[6]
  glycan array binding signal (z-score): 1.48
[7]
  glycan array binding signal (z-score): -0.057
[8]
  glycan array binding signal (z-score): -0.429
[9]
  glycan array binding signal (z-score): -0.157
[10]
  glycan array binding signal (z-score): 0.182
[11]
  glycan array binding signal (z-score): -0.088
[12]
  glycan array binding signal (z-score): 0.022
[13]
  glycan array binding signal (z-score): 0.152
[14]
  glycan array binding signal (z-score): 0.245
[15]
  glycan array binding signal (z-score): 1.84
[16]
  glycan array binding signal (z-score): 0.897
[17]
  glycan array binding signal (z-score): -0.215
[18]
  glycan array binding signal (z-score): 0.211
[19]
  glycan array binding signal (z-score): 2.8
Fuc(a1-2)Gal(b1-4)Glc
  glycan array binding signal (z-score): -0.305
Fuc(a1-2)Gal(b1-4)Glc6S
  glycan array binding signal (z-score): -0.447
Fuc(a1-2)Gal(b1-4)GlcNAc
  glycan array binding signal (z-score): -0.214
[20]
  glycan array binding signal (z-score): 0.542
[21]
  glycan array binding signal (z-score): 0.098
[22]
  glycan array binding signal (z-score): 1.07
[23]
  glycan array binding signal (z-score): 0.518
[24]
  glycan array binding signal (z-score): -0.254
[25]
  glycan array binding signal (z-score): 13.1
[26]
  glycan array binding signal (z-score): 1.15
[27]
  glycan array binding signal (z-score): -0.19
[28]
  glycan array binding signal (z-score): -0.363
[29]
  glycan array binding signal (z-score): 0.039
[30]
  glycan array binding signal (z-score): 0.439
[31]
  glycan array binding signal (z-score): -0.321
[32]
  glycan array binding signal (z-score): 0.289
[33]
  glycan array binding signal (z-score): 1.75
[34]
  glycan array binding signal (z-score): 1.12
[35]
  glycan array binding signal (z-score): -0.128
[36]
  glycan array binding signal (z-score): 0.209
[37]
  glycan array binding signal (z-score): 0.936
[38]
  glycan array binding signal (z-score): -0.354
[39]
  glycan array binding signal (z-score): -0.256
